From the BET-seq Pho4 binding data (Le et al. 2018) come the findings set out here.

The list shows a part of the results. These are noisy estimates, calculated here from bound and input reads.

For this assay, the target named is T1, Pho4 (S. cerevisiae) (UniProt P07270).
T1 sequence: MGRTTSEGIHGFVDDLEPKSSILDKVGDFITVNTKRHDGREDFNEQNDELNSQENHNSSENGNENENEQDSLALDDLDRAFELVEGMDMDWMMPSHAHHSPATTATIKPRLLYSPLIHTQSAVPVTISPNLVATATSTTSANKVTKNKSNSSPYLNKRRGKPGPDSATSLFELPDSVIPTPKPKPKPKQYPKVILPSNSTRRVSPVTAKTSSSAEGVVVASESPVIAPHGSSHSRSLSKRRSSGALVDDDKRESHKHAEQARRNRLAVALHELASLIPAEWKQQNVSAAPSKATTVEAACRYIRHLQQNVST
The assay is described as follows: relative binding free energy (BET-seq); higher = weaker binding. The note with it: reference: library average.
Consider TTTAACACGTGATATT, for which the “relative binding free energy” value was -0.01 kcal/mol.

Regarding ATATGCACGTGGTTTA, the “relative binding free energy” value was -0.2 kcal/mol.

With TGTAGCACGTGAGTGT, the “relative binding free energy” value was found to be 0.06 kcal/mol.

ATGGGCACGTGATCAG: the “relative binding free energy” value was -0.03 kcal/mol.

Consider CACGGCACGTGTATGG, for which the “relative binding free energy” value was determined as 0.02 kcal/mol.

Take ATAATCACGTGTGGCG: the “relative binding free energy” value was 0.04 kcal/mol.

Consider TAGGGCACGTGATGGT, for which the “relative binding free energy” value amounted to 0.02 kcal/mol.

Take TGAATCACGTGTTGAT: the “relative binding free energy” value was found to be 0.18 kcal/mol.

As to TATGGCACGTGCCGTG, the “relative binding free energy” value was -0.15 kcal/mol.

On to AGTGTCACGTGCCGTG, for which the “relative binding free energy” value was -0.02 kcal/mol.

As for TGCGTCACGTGGCATG, the “relative binding free energy” value was -0.02 kcal/mol.

Turning to GTTTGCACGTGTGGTA, the “relative binding free energy” value stood at 0.11 kcal/mol.

On to ATTTGCACGTGGTGCT, for which the “relative binding free energy” value is -0.1 kcal/mol.

On to ATGGGCACGTGATCTA, for which the “relative binding free energy” value is -0.08 kcal/mol.

As for GTGTGCACGTGGTGAA, the “relative binding free energy” value is -0.01 kcal/mol.

With TGTTTCACGTGTGGAT, the “relative binding free energy” value is 0.28 kcal/mol.

Regarding AATGTCACGTGTGTCT, the “relative binding free energy” value was determined as 0.04 kcal/mol.

On to ATCGTCACGTGTGTAT, for which the “relative binding free energy” value came to 0.01 kcal/mol.

Take AGTGGCACGTGTACGT: the “relative binding free energy” value was found to be 0 kcal/mol.

Take GTGTGCACGTGAAGGT: the “relative binding free energy” value was 0.23 kcal/mol.

As for TTGTGCACGTGGTGGG, the “relative binding free energy” value was -0.04 kcal/mol.

Consider GGTAACACGTGGTGTG, for which the “relative binding free energy” value is -0.11 kcal/mol.

On to TGGGACACGTGTTTAC, for which the “relative binding free energy” value was 0.14 kcal/mol.

For AGGAACACGTGGAGTA, the “relative binding free energy” value stood at 0.13 kcal/mol.

For the sequence ATTTACACGTGGCTGT, the “relative binding free energy” value is 0.01 kcal/mol.

For the sequence AACGTCACGTGGGTTA, the “relative binding free energy” value is -0.02 kcal/mol.

For TATATCACGTGGTAAT, the “relative binding free energy” value turned out to be 0.12 kcal/mol.

Regarding TAAGGCACGTGGTGGC, the “relative binding free energy” value was -0.13 kcal/mol.

Regarding GGTCGCACGTGTTGAT, the “relative binding free energy” value was 0.01 kcal/mol.

For TTCTACACGTGTTAGG, the “relative binding free energy” value turned out to be 0.09 kcal/mol.

Consider TGATACACGTGTTAGG, for which the “relative binding free energy” value came out at 0.07 kcal/mol.

Consider TAAATCACGTGGACGG, for which the “relative binding free energy” value is 0.25 kcal/mol.

In the case of TTTTGCACGTGGCAAG, the “relative binding free energy” value was -0.06 kcal/mol.

On to TGTGTCACGTGGAAGT, for which the “relative binding free energy” value is 0.12 kcal/mol.

Consider TGTATCACGTGAGTGA, for which the “relative binding free energy” value worked out at 0.17 kcal/mol.

Consider ATGGCCACGTGTGGAA, for which the “relative binding free energy” value is 0.08 kcal/mol.

As to GGTAACACGTGTGGCG, the “relative binding free energy” value was found to be 0.11 kcal/mol.

Turning to CTTGACACGTGGTGAT, the “relative binding free energy” value was -0.06 kcal/mol.

Consider TTGTACACGTGATAGA, for which the “relative binding free energy” value was 0.06 kcal/mol.

As for TTCACCACGTGTTTGT, the “relative binding free energy” value is -0.02 kcal/mol.

Regarding AGCGGCACGTGGTTAG, the “relative binding free energy” value is -0.2 kcal/mol.

With GATGGCACGTGGATTT, the “relative binding free energy” value was 0.05 kcal/mol.

Regarding TGAGTCACGTGAAGGA, the “relative binding free energy” value came out at 0.23 kcal/mol.

Regarding GGGTTCACGTGAGGTT, the “relative binding free energy” value was found to be 0.54 kcal/mol.

TAATGCACGTGTTATG: the “relative binding free energy” value is -0.01 kcal/mol.

In the case of GGATACACGTGATAGG, the “relative binding free energy” value came to 0.17 kcal/mol.

For TCGTGCACGTGTTTAA, the “relative binding free energy” value was -0.02 kcal/mol.

As to GGTTGCACGTGGTAAC, the “relative binding free energy” value was found to be 0.05 kcal/mol.

For GGTGCCACGTGAGCGG, the “relative binding free energy” value is -0.01 kcal/mol.

Turning to TTGGGCACGTGATGTT, the “relative binding free energy” value is 0.05 kcal/mol.

In the case of GGGGTCACGTGCGGTC, the “relative binding free energy” value was found to be 0.19 kcal/mol.

Regarding TTAATCACGTGGCCGG, the “relative binding free energy” value turned out to be 0.18 kcal/mol.

For TGTTTCACGTGAAAAT, the “relative binding free energy” value is 0.38 kcal/mol.

CGGTCCACGTGGGGTA: the “relative binding free energy” value is -0.09 kcal/mol.

On to AGGTGCACGTGTGGAT, for which the “relative binding free energy” value stood at 0.08 kcal/mol.

With TATAGCACGTGGTGAA, the “relative binding free energy” value was -0.21 kcal/mol.

Turning to TATTGCACGTGGGCCT, the “relative binding free energy” value is -0.11 kcal/mol.

Regarding AGGGGCACGTGAGGGC, the “relative binding free energy” value stood at 0.06 kcal/mol.

Turning to GTGTTCACGTGCTAGG, the “relative binding free energy” value came out at 0.17 kcal/mol.

Consider TGCTGCACGTGTTATG, for which the “relative binding free energy” value is -0.08 kcal/mol.

Consider AGGATCACGTGTCGGT, for which the “relative binding free energy” value turned out to be 0.16 kcal/mol.

As to TGTGTCACGTGCTGAG, the “relative binding free energy” value was -0.02 kcal/mol.

With TGGTACACGTGTTCGT, the “relative binding free energy” value came to 0.04 kcal/mol.

As for ATGGGCACGTGGTTTG, the “relative binding free energy” value is -0.07 kcal/mol.

Take GTAATCACGTGGCGTT: the “relative binding free energy” value is 0.01 kcal/mol.

Regarding TGGATCACGTGGTGCG, the “relative binding free energy” value was found to be 0.13 kcal/mol.

With TAGGCCACGTGTGGGA, the “relative binding free energy” value came to 0 kcal/mol.

For TTCAACACGTGTTATG, the “relative binding free energy” value stood at 0.06 kcal/mol.

In the case of GCGTGCACGTGTGTCG, the “relative binding free energy” value turned out to be 0 kcal/mol.

For the sequence GATCGCACGTGAGGGT, the “relative binding free energy” value was 0.24 kcal/mol.

Consider GAGGGCACGTGTACGA, for which the “relative binding free energy” value was found to be 0.19 kcal/mol.

On to GGGGTCACGTGTTTTT, for which the “relative binding free energy” value amounted to 0.21 kcal/mol.

In the case of AAGTTCACGTGCGATT, the “relative binding free energy” value turned out to be 0.37 kcal/mol.

In the case of TTATACACGTGTTTAG, the “relative binding free energy” value amounted to 0.02 kcal/mol.

In the case of AGTATCACGTGATGTG, the “relative binding free energy” value was found to be 0.37 kcal/mol.

With TTGTTCACGTGCGACT, the “relative binding free energy” value was 0.29 kcal/mol.

On to AAGTGCACGTGGCGGC, for which the “relative binding free energy” value was -0.08 kcal/mol.

Consider TAGGCCACGTGGAGTA, for which the “relative binding free energy” value was -0.11 kcal/mol.

Regarding AGAACCACGTGGGGGT, the “relative binding free energy” value was -0.06 kcal/mol.

For TGGTGCACGTGTATGT, the “relative binding free energy” value was 0.16 kcal/mol.

For the sequence AGAAGCACGTGTGAGG, the “relative binding free energy” value was -0.04 kcal/mol.

TATTTCACGTGTTGGG: the “relative binding free energy” value amounted to 0.32 kcal/mol.

For CGTTACACGTGGGGAG, the “relative binding free energy” value is -0.12 kcal/mol.

Take AGGGGCACGTGTATTA: the “relative binding free energy” value was -0.07 kcal/mol.

Regarding AATGTCACGTGGTTTT, the “relative binding free energy” value was 0.16 kcal/mol.

Take GTTGACACGTGGAGTT: the “relative binding free energy” value was found to be 0.01 kcal/mol.

Regarding AGTTCCACGTGGGCGG, the “relative binding free energy” value was 0.01 kcal/mol.

As for TAATGCACGTGTTACG, the “relative binding free energy” value is 0.01 kcal/mol.

For TTAGTCACGTGCTAGT, the “relative binding free energy” value is -0.14 kcal/mol.

As for TGAAACACGTGGGGTC, the “relative binding free energy” value was -0.11 kcal/mol.

Take CGGCGCACGTGTAGGG: the “relative binding free energy” value was -0.05 kcal/mol.

In the case of GCGTCCACGTGGGAGG, the “relative binding free energy” value is -0.06 kcal/mol.

On to CGTGGCACGTGAGGGG, for which the “relative binding free energy” value stood at 0.14 kcal/mol.

Consider TTGGTCACGTGAGTCC, for which the “relative binding free energy” value was found to be 0.42 kcal/mol.

Turning to GTAGTCACGTGTTCTG, the “relative binding free energy” value stood at 0.17 kcal/mol.

For GATGGCACGTGATTAG, the “relative binding free energy” value stood at 0.12 kcal/mol.

TAAAGCACGTGTGGCG: the “relative binding free energy” value is -0.06 kcal/mol.

For the sequence GGCTTCACGTGGAGGA, the “relative binding free energy” value is 0.18 kcal/mol.

AGTTGCACGTGAATTG: the “relative binding free energy” value was 0.22 kcal/mol.

With TCTGGCACGTGAGAGT, the “relative binding free energy” value was -0.02 kcal/mol.

TTTCACACGTGATGGG: the “relative binding free energy” value turned out to be 0.37 kcal/mol.

Consider GCTGACACGTGAGGTA, for which the “relative binding free energy” value worked out at 0.25 kcal/mol.

On to ATAGTCACGTGGGAAT, for which the “relative binding free energy” value is 0.09 kcal/mol.

As to GGTAACACGTGGGCTT, the “relative binding free energy” value was -0.06 kcal/mol.

Take CCGTGCACGTGATGGT: the “relative binding free energy” value worked out at 0.04 kcal/mol.

For TTTCTCACGTGTACTG, the “relative binding free energy” value is 0.27 kcal/mol.

Regarding AGATACACGTGATGGG, the “relative binding free energy” value is 0.2 kcal/mol.

As to ATGATCACGTGAGGTG, the “relative binding free energy” value stood at 0.36 kcal/mol.

As for ATGAGCACGTGGTAGA, the “relative binding free energy” value was -0.18 kcal/mol.

TATATCACGTGTCTTT: the “relative binding free energy” value was found to be 0.09 kcal/mol.

As to CTATTCACGTGTTGGG, the “relative binding free energy” value amounted to 0.24 kcal/mol.

Consider AATGGCACGTGTAGGA, for which the “relative binding free energy” value turned out to be 0.08 kcal/mol.

As to GTTTGCACGTGTTGCT, the “relative binding free energy” value is 0.06 kcal/mol.

TATTGCACGTGAGACT: the “relative binding free energy” value was determined as 0.13 kcal/mol.

Turning to ATGCGCACGTGGGGGT, the “relative binding free energy” value was -0.3 kcal/mol.
